Experimental findings from PMC4330362, “The ATP-mediated formation of the YgjD–YeaZ–YjeE complex is required for the biosynthesis of tRNA t^6A in Escherichia coli” (Nucleic Acids Research, 2015) are described below.

For this assay, the target named is T1, YgjD (TsaD) (Escherichia coli K-12, UniProt P05852 1-337).
T1 construct: YgjD (TsaD), Escherichia coli K-12, 337 residues; gene amplified from genomic DNA, cloned in pET9a; Alone it is a homodimer by gel filtration and SAXS; also called Ec–YgjD; source: E. coli BL21(DE3), purified (details in the Supplementary Materials)
Put plainly: ITC; YgjD as 'titrant' (20-30 uM), YeaZ as 'injectant' (200-360 uM); in absence of nucleotides (ADP or ATP). The following applies: both partners purified.

YgjD (TsaD), sequence (P05852 whole entry): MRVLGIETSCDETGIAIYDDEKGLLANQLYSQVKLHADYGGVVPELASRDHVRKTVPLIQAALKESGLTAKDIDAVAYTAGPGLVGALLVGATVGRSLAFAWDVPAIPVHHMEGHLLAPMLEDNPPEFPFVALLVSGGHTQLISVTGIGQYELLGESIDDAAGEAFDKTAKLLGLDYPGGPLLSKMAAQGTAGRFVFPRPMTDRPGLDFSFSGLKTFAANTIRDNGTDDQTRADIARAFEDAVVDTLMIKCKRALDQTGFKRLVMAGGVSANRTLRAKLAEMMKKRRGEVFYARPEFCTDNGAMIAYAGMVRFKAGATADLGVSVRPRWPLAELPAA

B1: YeaZ^[…] (domain or fragment)
chain: not shown
notes: Made by Quikchange mutagenesis of pET9a–yeaZ (YeaZ–Δ220); also called YeaZ–Δ220; YeaZ Δ220–231; source: E. coli BL21(DE3), purified (details in the Supplementary Materials)
A word on the Kd: it is a measure of binding affinity in units of concentration. Lower therefore signals higher affinity. Usually stoichiometry N stands for a count of units in the complex or per binding partner. Regarding B1, the Kd amounted to 30 ± 10 nM, the dH was 5.96 ± 0.12 kcal/mol and the “stoichiometry N” value was determined as 1.06 ± 0.0064.
